Test results published in PubChem BioAssay (Tox21).
This list was built around the results that the source calls inconclusive (neither active nor inactive); the mix of calls is not that of the screen. For part of these data: Potencies beside an inconclusive call are fits to weak or partial responses and may not hold up. Active and inactive are the calls of the source. Unless noted, calls follow the shape of the dose curve; as a rule, active = well fitted curve in the direction sought with a large enough effect in the repeat runs; inconclusive = weak or mixed curves; inactive = no such curve, though single readings can be large; an effect the other way counts as inactive or inconclusive.

Assays:
[1] = target: Glucocorticoid receptor (Homo sapiens) (UniProt P04150); assay: qHTS assay to identify small molecule antagonists of the glucocorticoid receptor (GR) signaling pathway (AID 720692; active = well fitted inhibition curve with a large enough effect in the signal ratio in the repeat runs, not every such curve was filed as active; inconclusive = weak or mixed curves, or effect the other way; inactive = no such curve, though single readings can be large or run the other way; the % refers to the signal ratio; also: % is scaled to controls: 0 for no effect and ±100 for the full control effect); details: GR-bla HeLa, beta-lactamase FRET ratio, dexamethasone-stimulated, 18 h; activity change, negative = inhibition: at 58.5 µM (top of the series) unless noted
UniProt P04150, sequence (P04150 whole entry, looked up): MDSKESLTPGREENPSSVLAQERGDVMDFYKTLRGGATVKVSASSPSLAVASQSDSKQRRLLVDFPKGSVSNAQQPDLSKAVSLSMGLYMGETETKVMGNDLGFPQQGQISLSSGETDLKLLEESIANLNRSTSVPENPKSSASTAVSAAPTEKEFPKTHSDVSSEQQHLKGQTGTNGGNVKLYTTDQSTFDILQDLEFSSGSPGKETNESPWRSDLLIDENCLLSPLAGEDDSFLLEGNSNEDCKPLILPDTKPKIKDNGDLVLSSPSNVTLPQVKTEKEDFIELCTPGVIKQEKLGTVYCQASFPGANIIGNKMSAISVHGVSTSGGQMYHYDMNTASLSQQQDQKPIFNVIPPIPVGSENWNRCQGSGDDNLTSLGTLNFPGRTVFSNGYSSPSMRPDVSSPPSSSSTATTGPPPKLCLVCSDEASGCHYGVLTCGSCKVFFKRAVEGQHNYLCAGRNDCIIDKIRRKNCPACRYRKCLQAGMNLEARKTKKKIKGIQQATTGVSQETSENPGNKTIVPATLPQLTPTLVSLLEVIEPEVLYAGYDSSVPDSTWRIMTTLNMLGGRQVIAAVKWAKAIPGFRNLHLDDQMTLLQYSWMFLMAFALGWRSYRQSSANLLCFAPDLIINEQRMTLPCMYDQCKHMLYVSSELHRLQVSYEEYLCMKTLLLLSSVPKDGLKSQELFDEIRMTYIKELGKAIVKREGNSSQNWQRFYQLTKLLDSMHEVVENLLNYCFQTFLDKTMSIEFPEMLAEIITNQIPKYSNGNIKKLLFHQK
Outline: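 In a 1536-well cell format, compounds were added 4 h after seeding GR-bla HeLa cells, together with dexamethasone at 5 nM final; reporter activity was measured by FRET-substrate fluorescence following 18 h at 37 C.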

[2] = qHTS assay to identify small molecule antagonists of the thyroid receptor (TR) signaling pathway - cell viability counter screen (AID 743064); details: GH3.TRE-Luc viability, CellTiter-Fluor, 24 h; activity change, negative = cytotoxic: at 70.3 µM (top of the series) unless noted; also: nearly all actives have a fitted effect of over 50% in size; also: potency is read from the fitted curve at half-maximal effect
Outline: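 CellTiter-Fluor readout, 30 min at 37 °C/5% CO2, following 23.5 h incubation of GH3.TRE-Luc cells with test compound and 1 nM T3 (final).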

[3] = qHTS assay to identify small molecule antagonists of the peroxisome proliferator-activated receptor delta (PPARd) signaling pathway - cell viability counter screen (AID 743213); details: PPARd-bla HEK293H viability, CellTiter-Glo luminescence, 17 h; viability change, negative = cytotoxic: at 62 µM (top of the series) unless noted; also: % is scaled to controls: 0 for no effect and ±100 for the full control effect; nearly all actives have a fitted effect of over 50% in size
Outline: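 HEK293H PPARd UAS-bla cells, 5 h pre-incubation, compound + L165041 300 nM final, 17 h 37 C; B/G FRET substrate 2 h RT; then CellTiter-Glo 30 min RT, luminescence.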

[4] = target: Estrogen receptor beta (Homo sapiens) (UniProt Q92731); assay: qHTS assay to identify small molecule antagonists of the estrogen receptor beta (ER-beta) signaling pathway (AID 1259378; active = well fitted inhibition curve with a large enough effect in the signal ratio in the repeat runs, not every such curve was filed as active; inconclusive = weak or mixed curves, or effect the other way; inactive = no such curve, though single readings can be large or run the other way; the % refers to the signal ratio; also: % is scaled to controls: 0 for no effect and ±100 for the full control effect); details: ER-beta-UAS-bla HEK293T, beta-lactamase FRET ratio, 16 h; activity, negative = inhibition: at 92.4 µM (top of the series) unless noted
UniProt Q92731, sequence (Q92731 whole entry, looked up): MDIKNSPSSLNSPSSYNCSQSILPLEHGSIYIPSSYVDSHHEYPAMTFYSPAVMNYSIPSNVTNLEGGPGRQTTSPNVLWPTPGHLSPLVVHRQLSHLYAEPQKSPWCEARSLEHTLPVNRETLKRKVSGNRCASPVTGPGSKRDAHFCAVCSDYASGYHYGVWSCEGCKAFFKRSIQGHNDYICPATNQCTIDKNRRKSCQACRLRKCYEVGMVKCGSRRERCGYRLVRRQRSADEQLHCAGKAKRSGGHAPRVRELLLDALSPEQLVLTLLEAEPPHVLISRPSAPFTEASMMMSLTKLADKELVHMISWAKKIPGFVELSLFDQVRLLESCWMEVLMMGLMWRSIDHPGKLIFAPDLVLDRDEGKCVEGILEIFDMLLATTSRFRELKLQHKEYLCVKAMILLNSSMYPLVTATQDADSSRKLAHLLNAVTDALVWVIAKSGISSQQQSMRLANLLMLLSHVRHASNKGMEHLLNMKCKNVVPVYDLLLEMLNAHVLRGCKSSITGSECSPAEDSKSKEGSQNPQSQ
Outline: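 Antagonist mode: compounds added to beta-lactamase reporter HEK293T ER-beta-UAS cells stimulated with E2 (1nM final), 16 hr at 37C. LiveBLAzer B/G FRET substrate, 2 hours room temperature, fluorescence read-out.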

[5] = target: Progesterone receptor (Homo sapiens) (UniProt P06401); assay: qHTS assay to identify small molecule antagonists of the progesterone receptor (PR) signaling pathway (AID 1346795; active = well fitted inhibition curve with a large enough effect in the signal ratio in the repeat runs, not every such curve was filed as active; inconclusive = weak or mixed curves; the % refers to the signal ratio; also: % is scaled to controls: 0 for no effect and ±100 for the full control effect); details: PR-UAS-bla HEK293T, beta-lactamase FRET ratio, 16 h; activity change, negative = inhibition: at 92.4 µM (top of the series) unless noted
UniProt P06401, sequence (P06401 whole entry, looked up): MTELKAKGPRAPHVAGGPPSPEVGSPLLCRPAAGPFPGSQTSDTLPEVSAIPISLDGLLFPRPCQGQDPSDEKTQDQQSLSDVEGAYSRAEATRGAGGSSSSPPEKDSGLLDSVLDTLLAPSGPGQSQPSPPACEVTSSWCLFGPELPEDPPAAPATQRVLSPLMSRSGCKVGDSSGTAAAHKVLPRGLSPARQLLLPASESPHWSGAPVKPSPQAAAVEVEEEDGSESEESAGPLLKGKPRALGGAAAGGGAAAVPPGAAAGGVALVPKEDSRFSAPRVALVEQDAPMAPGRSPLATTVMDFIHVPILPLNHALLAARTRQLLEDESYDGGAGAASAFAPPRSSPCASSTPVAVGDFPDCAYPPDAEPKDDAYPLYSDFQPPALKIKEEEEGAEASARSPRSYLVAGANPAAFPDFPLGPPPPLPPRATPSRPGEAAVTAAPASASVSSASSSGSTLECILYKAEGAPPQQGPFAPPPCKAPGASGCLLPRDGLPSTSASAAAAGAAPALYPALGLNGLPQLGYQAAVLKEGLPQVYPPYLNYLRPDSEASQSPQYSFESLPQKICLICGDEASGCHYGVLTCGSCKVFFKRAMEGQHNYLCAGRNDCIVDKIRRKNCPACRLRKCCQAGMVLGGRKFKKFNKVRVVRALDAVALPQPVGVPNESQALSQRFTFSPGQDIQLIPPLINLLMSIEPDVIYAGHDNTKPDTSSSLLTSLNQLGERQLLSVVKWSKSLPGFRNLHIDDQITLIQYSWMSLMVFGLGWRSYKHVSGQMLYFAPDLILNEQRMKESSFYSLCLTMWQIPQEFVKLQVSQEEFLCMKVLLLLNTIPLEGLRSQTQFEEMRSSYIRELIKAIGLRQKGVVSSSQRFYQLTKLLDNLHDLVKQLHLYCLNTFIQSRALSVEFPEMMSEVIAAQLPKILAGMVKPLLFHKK
Outline: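 Stimulus R5020 at 1 nM final; cells HEK293T PR-UAS-bla; medium with 2% charcoal-stripped FBS; compound exposure 16 hr at 37C, 5% CO2; detection by FRET beta-lactamase substrate, 2 hr, room temperature.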

[6] = target: Cytochrome P450 2D6 (Homo sapiens) (UniProt P10635); assay: Cytochrome P450 Family 2 Subfamily D Member 6 (CYP2D6) small molecule antagonists: luciferase reporter qHTS assay (AID 1671196); also: nearly all actives have a fitted effect of over 50% in size; also: potency is read from the fitted curve at half-maximal effect
UniProt P10635, sequence (P10635 whole entry, looked up): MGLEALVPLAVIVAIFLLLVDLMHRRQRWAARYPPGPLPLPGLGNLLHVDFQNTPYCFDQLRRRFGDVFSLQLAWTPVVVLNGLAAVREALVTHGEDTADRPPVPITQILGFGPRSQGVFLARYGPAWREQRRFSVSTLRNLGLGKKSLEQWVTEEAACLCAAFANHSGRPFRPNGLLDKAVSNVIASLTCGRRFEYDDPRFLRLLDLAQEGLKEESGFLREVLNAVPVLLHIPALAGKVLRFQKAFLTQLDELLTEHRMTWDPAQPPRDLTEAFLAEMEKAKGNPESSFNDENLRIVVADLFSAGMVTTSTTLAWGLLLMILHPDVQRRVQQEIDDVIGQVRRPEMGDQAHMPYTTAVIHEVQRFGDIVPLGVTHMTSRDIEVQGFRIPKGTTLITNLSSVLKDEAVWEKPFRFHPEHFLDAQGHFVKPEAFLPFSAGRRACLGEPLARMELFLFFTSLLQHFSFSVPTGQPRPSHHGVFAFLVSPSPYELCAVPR
Outline: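 Room-temperature luminescent CYP2D6 activity assay: compound preincubated 10 min with enzyme–substrate mix, NADPH-initiated reaction 1 h, detection reagent 20 min before reading.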

[7] = target: Cytochrome P450 1A2 (Homo sapiens) (UniProt P05177); assay: Cytochrome P450 Family 1 Subfamily A Member 2 (CYP1A2) small molecule antagonists: luciferase reporter qHTS assay (AID 1671199); also: nearly all actives have a fitted effect of over 50% in size; also: potency is read from the fitted curve at half-maximal effect
UniProt P05177, sequence (P05177 whole entry, looked up): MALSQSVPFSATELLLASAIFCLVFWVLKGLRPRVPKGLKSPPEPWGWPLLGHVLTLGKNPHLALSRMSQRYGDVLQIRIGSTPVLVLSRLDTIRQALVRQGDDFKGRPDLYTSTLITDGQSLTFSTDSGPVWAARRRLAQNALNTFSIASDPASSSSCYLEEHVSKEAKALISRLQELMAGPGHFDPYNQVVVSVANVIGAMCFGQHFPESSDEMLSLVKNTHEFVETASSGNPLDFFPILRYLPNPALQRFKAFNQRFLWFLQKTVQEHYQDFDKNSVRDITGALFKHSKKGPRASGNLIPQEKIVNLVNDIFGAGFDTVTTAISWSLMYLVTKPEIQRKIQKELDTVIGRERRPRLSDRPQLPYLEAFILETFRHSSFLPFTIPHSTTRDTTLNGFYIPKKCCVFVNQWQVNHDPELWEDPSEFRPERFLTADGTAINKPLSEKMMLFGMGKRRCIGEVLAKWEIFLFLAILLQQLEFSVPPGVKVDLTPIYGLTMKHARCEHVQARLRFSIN
Outline: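 Room-temperature CYP1A2 reaction with proluciferin substrate: compounds added from DMSO, 10 min preincubation, NADPH regeneration for 1 h. Luciferin detection reagent then added; luminescence recorded as RLU.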

[8] = qHTS assay for small molecule disruptors of the mitochondrial membrane potential (AID 720635); details: HepG2 mitochondrial membrane potential, Mito-MPS dye ratio; ratio activity, negative = MMP loss: at 83.2 µM (top of the series) unless noted; also: potency is read from the fitted curve at half-maximal effect
Outline: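 Mitochondrial membrane potential tracked with Mito-MPS dye, red aggregates (ex 540/em 590 nm) against green monomers (ex 490/em 535 nm). Compound treatment 1 hr at 37C, dye 30 min in HepG2.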

[9] = target: Peroxisome proliferator-activated receptor gamma (Homo sapiens) (UniProt P37231); assay: qHTS assay to identify small molecule antagonists of the peroxisome proliferator-activated receptor gamma (PPARg) signaling pathway (AID 743191; calls by dose curve; also: % is scaled to controls: 0 for no effect and ±100 for the full control effect; nearly all actives have a fitted effect of over 30% in size); details: HEK293H PPARg-UAS-bla, beta-lactamase ratio, antagonist, 17 h; ratio activity, negative = inhibition: at 62.6 µM (top of the series) unless noted
UniProt P37231, sequence (P37231 whole entry, looked up): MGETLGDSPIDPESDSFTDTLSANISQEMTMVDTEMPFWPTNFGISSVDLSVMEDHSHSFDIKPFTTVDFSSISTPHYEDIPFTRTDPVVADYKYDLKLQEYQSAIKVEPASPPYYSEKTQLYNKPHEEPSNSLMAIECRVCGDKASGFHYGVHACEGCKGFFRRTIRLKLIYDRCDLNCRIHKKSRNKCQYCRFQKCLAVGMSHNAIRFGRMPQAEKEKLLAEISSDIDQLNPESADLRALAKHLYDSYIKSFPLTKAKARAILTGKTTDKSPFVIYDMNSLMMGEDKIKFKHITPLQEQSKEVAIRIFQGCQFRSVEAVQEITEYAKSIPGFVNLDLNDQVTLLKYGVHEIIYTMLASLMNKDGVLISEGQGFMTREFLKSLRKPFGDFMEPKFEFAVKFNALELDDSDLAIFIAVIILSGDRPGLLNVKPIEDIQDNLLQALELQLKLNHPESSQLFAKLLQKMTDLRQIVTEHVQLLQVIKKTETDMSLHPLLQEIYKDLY
Outline: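 Beta-lactamase reporter under UAS control in HEK293H PPARg-bla cells; compound treatment 17 h at 37C. Read-out: fluorescence intensity after 1 h room-temperature incubation with LiveBLAzer B/G FRET substrate.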

[10] = qHTS assay for small molecule agonists of the antioxidant response element (ARE) signaling pathway (AID 743202; active = well fitted activation curve with a large enough effect in the signal ratio in the repeat runs, not every such curve was filed as active; inconclusive = weak or mixed curves, or effect the other way; inactive = no such curve, though single readings can be large or run the other way; the % refers to the signal ratio; also: % is scaled to controls: 0 for no effect and ±100 for the full control effect); details: HepG2 ARE-bla reporter, beta-lactamase FRET, 16 h; activation: at 73.3 µM (top of the series) unless noted
Outline: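 After 16 hours of compound treatment at 37 C, HepG2 cells with a stably integrated ARE-driven beta-lactamase reporter were loaded 2 hours at room temperature with LiveBLAzer B/G FRET substrate and fluorescence intensity measured.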

[11] = target: Vitamin D3 receptor (Homo sapiens) (UniProt P11473); assay: qHTS assay to identify small molecule antagonists of the vitamin D receptor (VDR) signaling pathway (AID 743223; active = well fitted inhibition curve with a large enough effect in the signal ratio in the repeat runs, not every such curve was filed as active; inconclusive = weak or mixed curves, or effect the other way; inactive = no such curve, though single readings can be large or run the other way; the % refers to the signal ratio; also: % is scaled to controls: 0 for no effect and ±100 for the full control effect); details: VDR-UAS-bla HEK293T, beta-lactamase FRET ratio, 16 h; activity change, negative = inhibition: at 61 µM (top of the series) unless noted
UniProt P11473, sequence (P11473 whole entry, looked up): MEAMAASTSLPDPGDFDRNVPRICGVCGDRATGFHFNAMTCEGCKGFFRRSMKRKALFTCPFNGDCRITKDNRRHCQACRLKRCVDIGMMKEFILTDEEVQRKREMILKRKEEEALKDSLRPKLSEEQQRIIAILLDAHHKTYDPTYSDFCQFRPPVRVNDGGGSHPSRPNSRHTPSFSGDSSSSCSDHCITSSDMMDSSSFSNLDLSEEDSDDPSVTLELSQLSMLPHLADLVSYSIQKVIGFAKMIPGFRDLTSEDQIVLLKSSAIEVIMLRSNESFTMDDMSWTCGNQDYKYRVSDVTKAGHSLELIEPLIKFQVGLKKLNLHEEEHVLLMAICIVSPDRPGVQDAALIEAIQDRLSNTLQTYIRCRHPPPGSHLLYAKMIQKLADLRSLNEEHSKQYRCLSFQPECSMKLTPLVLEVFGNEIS
Outline: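 Inhibition of agonist-driven VDR signalling is scored in VDR-bla cells: 3 nM final 1alpha,25-dihydroxyvitamin D3 plus compound, 16 h at 37C, then beta-lactamase detection by FRET substrate fluorescence after 2 h.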

[12] = qHTS assay to identify small molecule antagonists of the sonic hedgehog signaling (Shh) pathway (AID 1259369; calls by dose curve; also: nearly all actives have a fitted effect of over 45% in size; also: potency is read from the fitted curve at half-maximal effect)
Outline: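 Read-out is luminescence from a firefly luciferase gene controlled by the Gli1 response element, in 3T3Gli1-Luc cells pre-incubated 4hr then exposed to compounds and conditioned medium for 24hr.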

[13] = target: Cytochrome P450 2C19 (Homo sapiens) (UniProt P33261); assay: Cytochrome P450 Family 2 Subfamily C Member 19 (CYP2C19) small molecule antagonists: luciferase reporter qHTS assay (AID 1671197); also: nearly all actives have a fitted effect of over 65% in size; also: potency is read from the fitted curve at half-maximal effect
UniProt P33261, sequence (P33261 whole entry, looked up): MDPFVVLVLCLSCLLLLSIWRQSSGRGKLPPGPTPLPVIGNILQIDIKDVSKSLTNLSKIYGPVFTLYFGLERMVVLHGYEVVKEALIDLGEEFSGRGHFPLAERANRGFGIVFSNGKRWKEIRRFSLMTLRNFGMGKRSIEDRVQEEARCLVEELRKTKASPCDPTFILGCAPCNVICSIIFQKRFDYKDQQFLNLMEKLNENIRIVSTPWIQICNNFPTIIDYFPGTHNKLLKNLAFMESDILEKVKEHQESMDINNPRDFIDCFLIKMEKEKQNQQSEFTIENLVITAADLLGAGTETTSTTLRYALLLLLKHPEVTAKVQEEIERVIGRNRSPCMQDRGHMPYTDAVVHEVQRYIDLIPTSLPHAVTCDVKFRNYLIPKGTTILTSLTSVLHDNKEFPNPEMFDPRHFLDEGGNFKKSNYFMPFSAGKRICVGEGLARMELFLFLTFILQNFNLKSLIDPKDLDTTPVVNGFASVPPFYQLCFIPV
Outline: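 CYP2C19 P450-Glo, 1536-well qHTS. Cpd + enzyme/proluciferin substrate 10 min RT; + NADPH regen, 37C 1 h; stop with luciferin detection reagent, 20 min RT, luminescence (RLU). Pos ctrl ketoconazole.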

[14] = qHTS assay to identify small molecule agonists of H2AX - cell viability counter screen (AID 1224847; calls by dose curve; also: potency is read from the fitted curve at half-maximal effect; nearly all actives have a fitted effect of over 30% in size)
Outline: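 Compounds tested at 15 concentrations were incubated 3 hr at 37C with wild-type CHO-K1 cells; cellular ATP-based luminescence (CellTiter-Glo) indicated viability.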

[15] = qHTS assay for identifying genotoxic compounds that show differential cytotoxicity against isogenic chicken DT40 cell lines with known DNA damage response pathways - Rev3 mutant cell line (AID 743014); details: chicken DT40 Rev3-/- viability, CellTiter-Glo, 40 h; activity, negative = cytotoxicity: at 68.4 µM (top of the series) unless noted; also: % is scaled to controls: 0 for no effect and ±100 for the full control effect; nearly all actives have a fitted effect of over 55% in size
[16] = target: Cytochrome P450 2C9 (Homo sapiens) (UniProt P11712); assay: Cytochrome P450 Family 2 Subfamily C Member 9 (CYP2C9) small molecule antagonists: luciferase reporter qHTS assay (AID 1671198)
Outline: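 Enzyme-substrate mix preincubated with compound 10 min at room temperature; reaction started with NADPH regeneration solution, 1 h 37C. Luminescent luciferin product read after 20 min detection reagent.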
Tags tell the direction and shape of the fitted curve or compound fluorescence and quenching.

With CC(C)=CC(C)(C)C the activity change, negative = inhibition [1] was inconclusive: -13.5%, the Potency [2] was inconclusive: 5.98 µM [rising, single point] and the Potency [3] was “inactive”. The activity, negative = inhibition [4] was inconclusive: 13.9%, the Potency [5] was “inactive” and the Potency [6] was “inactive”. For the same compound, the Potency [7] was inconclusive: 34.8 µM [inhibitor, partial curve].

In the case of CCOCC(C)O (stereo not given), the Potency [8] is reported as inconclusive: 0.193 µM [activator], the Potency [9] is reported as “inactive” and the Potency [10] is reported as “inactive”. The Potency [3] was “inactive”, the activity change, negative = inhibition [11] was inconclusive: 5.32% and the Potency [12] was “inactive”. For the same compound, the Potency [6] was inconclusive: 11.2 µM [inhibitor, full curve], the Potency [13] was “inactive” and the Potency [7] was inconclusive: 35.6 µM [inhibitor, partial curve].

For CS(=O)(=O)c1ccc([C@@H](CC2CCCC2)C(=O)Nc2cnccn2)cc1Cl, the Potency [2] was inconclusive: 61.1 µM [cytotoxic], the Potency [14] was active: 101 µM and the Potency [12] was inconclusive: 68.6 µM [inhibitor, single point].

For NC(CCC(=O)O)C(=O)O (stereo not given), the Potency [1] was “inactive”, the Potency [2] was “inactive” and the activity change, negative = inhibition [11] was inconclusive: 6.98%. For the same compound, the Potency [5] was “inactive”, the Potency [6] was active: 31 µM and the Potency [7] was “inactive”.

In the case of Cc1ccccc1OCC(O)CO (stereo not given), the Potency [1] is reported as “inactive”, the Potency [15] is reported as “inactive” and the Potency [2] is reported as inconclusive: 33.5 µM [rising, single point]. The Potency [12] was “inactive”, the Potency [6] was inconclusive: 27.5 µM [inhibitor, partial curve] and the Potency [13] was inconclusive: 30.9 µM [inhibitor, single point].

For CCCCNCC, the Potency [8] was “inactive”, the Potency [2] was inconclusive: 74.2 µM [rising, single point] and the Potency [9] was “inactive”. For the same compound, the Potency [10] was “inactive” and the Potency [16] was inconclusive: 34.3 µM [inhibitor, partial curve, poor fit].

With CC(C)(C)OC=O the Potency [8] was inconclusive: 2.53 µM [rising, single point], the Potency [15] was “inactive” and the activity change, negative = inhibition [5] was inconclusive: -3.1%. The Potency [7] was inconclusive: 41.5 µM [inhibitor, partial curve].

In the case of CC(=O)Nc1c(I)cc(I)c(C(=O)O)c1I, the Potency [8] is reported as “inactive”, the Potency [1] is reported as “inactive” and the activity, negative = inhibition [4] is reported as inconclusive: 25.9% [at 42.5 µM]. The Potency [6] was active: 27.5 µM and the Potency [13] was inconclusive: 30.9 µM [inhibitor, partial curve, poor fit].
